From PubChem BioAssay AID588453 (National Center for Advancing Translational Sciences (NCATS), 2011)
Values joined by “and” are separate entries in the source; they are usually repeats but may differ in a detail not shown here. Identical values can stand only once. Hit rate of the full screen: of about 390,000 compounds, about 4,000 (1%) were called active. This list was built around the results that the source calls inconclusive (neither active nor inactive); the mix of calls is not that of the screen. Calls come from the whole dose curve; as a rule, active = well fitted inhibition curve with a large enough effect; inconclusive = small, poorly fitted or top-dose-only effect; inactive = no such curve, though single readings can be large or run the other way. Potencies beside an inconclusive call are fits to weak or partial responses and may not hold up.

Biological target: Thioredoxin reductase 1, cytoplasmic (Rattus norvegicus) (UniProt O89049)
Sequence of UniProt O89049 (O89049 whole entry, looked up): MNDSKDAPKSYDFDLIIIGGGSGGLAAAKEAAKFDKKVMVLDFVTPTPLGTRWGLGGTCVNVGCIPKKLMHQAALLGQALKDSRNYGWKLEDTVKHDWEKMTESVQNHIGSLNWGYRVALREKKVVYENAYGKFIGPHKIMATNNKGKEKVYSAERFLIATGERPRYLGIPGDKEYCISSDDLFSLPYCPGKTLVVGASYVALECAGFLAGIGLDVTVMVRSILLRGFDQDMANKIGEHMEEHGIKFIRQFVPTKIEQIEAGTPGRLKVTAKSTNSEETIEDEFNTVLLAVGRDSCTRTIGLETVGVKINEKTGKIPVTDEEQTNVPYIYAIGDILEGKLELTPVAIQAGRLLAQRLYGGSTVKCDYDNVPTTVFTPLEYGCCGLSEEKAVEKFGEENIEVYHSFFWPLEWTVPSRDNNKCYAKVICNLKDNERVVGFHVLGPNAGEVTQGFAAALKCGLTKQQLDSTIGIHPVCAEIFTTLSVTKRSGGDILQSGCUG
Assay: qHTS Assay for Inhibitors of Mammalian Selenoprotein Thioredoxin Reductase 1 (TrxR1): qHTS; note: nearly all actives have a fitted effect of over 65% in size
Conditions: recombinant rTrxR1, NADPH fluorescence consumption, selenite substrate; series mostly up to 114 µM; activity change, negative = inhibition: at the top concentration
How it was run: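 Rat TrxR1 (90 nM in the dispensed reagent) was pre-reduced with 400 uM NADPH for 5 min at room temperature, then incubated with compound for 15 min. After 400 uM selenite was added, NADPH fluorescence (Ex 340/Em 450 nm) was followed for 8 min.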
% is set by controls: 0 for no effect and ±100 for the full control effect; potency is the fitted concentration of half-maximal effect; tags give direction and shape of the fitted curve.

SMILES | Potency | activity change, negative = inhibition
O=[N+]([O-])c1ccccc1S(=O)(=O)N1CCN(Cc2cc3c(cc2O)OCO3)CC1 | inconclusive: 7.94 µM [inhibitor, full curve] | 
CN(C)c1ccc(C(CNC(=O)c2ccccc2F)N2CCc3ccccc32)cc1 (stereo not given) | inconclusive: 14.1 µM [inhibitor, partial curve] | 
CCCNC(=O)CS(=O)(=O)Cc1nc(-c2cccc(OC)c2)oc1C | inconclusive: 25.1 µM [inhibitor, partial curve] | 
CCN1c2ccccc2N(C)C1(C)c1ccccc1 (stereo not given) | active: 44.7 µM | 
O=C1CC(c2ccco2)CC(O)=C1C=Nc1cc(Cl)ccc1O (stereo not given) | inconclusive: 89.1 µM [inhibitor, single point] | 
Cc1ccc(C(=O)c2c3ccc([N+](=O)[O-])cc3[n+]([O-])n2CCCN)cc1 | active: 56.2 µM | 
CCN(C(=O)CSc1nnc(-c2ccco2)n1Cc1ccccc1)C1CCS(=O)(=O)C1 (stereo not given) | inconclusive: 20 µM [inhibitor, full curve, poor fit] | 
COc1ccc(-c2nnc(SCC(=O)NCc3ccccc3)nc2-c2ccc(OC)c(OC)c2)cc1OC |  | inactive: 0.647% [at 57.1 µM]
COc1ccc2ccccc2c1C1CC(=O)N2CN(C3CCCCC3)CSC2=C1C#N (stereo not given) | inconclusive: 8.91 µM [inhibitor, partial curve] | 
Oc1ccc(N2Cc3ccccc3C2)cc1 | inconclusive: 79.4 µM [inhibitor, single point] | 
FC(F)(F)c1ccc(Cl)c(-n2c(-c3ccco3)n[nH]c2=S)c1 | inconclusive: 28.2 µM [inhibitor, partial curve] | 
Cc1c2cnn(-c3ccccc3)c(=O)c2c(C)n1CC(=O)N1CCN(c2ccc(F)cc2)CC1 | inconclusive: 79.4 µM [inhibitor, single point] | 
O=C1NC(c2ccc(-c3ccccc3[N+](=O)[O-])o2)C(C(=O)c2ccc(Cl)cc2)C(O)(C(F)(F)F)N1 (stereo not given) | inconclusive: 50.1 µM [inhibitor, partial curve] | 
COc1ccc(S(N)(=O)=O)cc1C(=O)OCC(=O)NC(C)(C#N)C1CC1 (stereo not given) | inconclusive: 89.1 µM [inhibitor, single point] | 
C=CC[C@H]1CC(Cc2ccccc2)=C[C@H](CC=C)N1 | inconclusive: 89.1 µM [inhibitor, partial curve, poor fit] | 
CN(C)c1ccc(S(=O)(=O)NCC(=O)NCc2ccccc2)cc1[N+](=O)[O-] |  | inactive: 30.2%
CCc1nnc(NS(=O)(=O)c2ccc(NC(=S)NC(=O)/C=C/c3ccc(C(C)C)cc3)cc2)s1 | inconclusive: 8.91 µM [inhibitor, partial curve] | 
O=C(c1cc(-c2ccco2)on1)N1CCN(c2ccccc2)CC1 | inconclusive: 22.4 µM [inhibitor, partial curve] | 
CCOc1ccc(Cc2n[nH]c(=S)n2Cc2ccccc2)cc1 |  | inactive: -11.8%
O=C(/C=C/Nc1ccc(F)c(Cl)c1)c1ccccc1 |  | inactive: 21.5% [at 2.29 µM]
CC1(C)CC(=O)C(C=NCCN2CCN(C(=O)CC3CCCC3)CC2)=C(O)C1 | inconclusive: 56.2 µM [inhibitor, single point] | 
Cc1c(N=C2SCC(=O)N2/N=C/c2ccccc2)c(=O)n(-c2ccccc2)n1C | inconclusive: 89.1 µM [inhibitor, single point] | 

SMILES | Potency | activity change, negative = inhibition
CCOC(=O)c1cnc2c(OC)cccc2c1NCc1cccnc1 |  | inactive: -2.23%
Cc1ccc2cccnc2c1NC(=S)NC(=O)c1ccccc1 |  | inactive: -30.8% [at 57.1 µM]
CCOc1cc(C2C(C#N)=C(N)OC(C)=C2C(C)=O)c(Br)c(Br)c1OC(C)C (stereo not given) | inconclusive: 50.1 µM [inhibitor, partial curve, poor fit] | 
CC(=O)c1ccc2c(c1)C1C=CCC1C(c1ccncc1)N2 (stereo not given) | inconclusive: 89.1 µM [inhibitor, single point] | 
O=C(C[n+]1cc(Br)cc(Br)c1)c1ccc2ccccc2c1 | inconclusive: 70.8 µM [inhibitor, partial curve] | 
CCC(=O)NC(=S)Nc1ccc(S(=O)(=O)NC(C)C)cc1 | inconclusive: 70.8 µM [inhibitor, single point] | 
CCN(CC)CCCNC(=O)c1ccccc1C |  | inactive: 13.9%
COCCNc1cc(C)c(C#N)c2nc3ccccc3n12 | inconclusive: 28.2 µM [inhibitor, single point] | 
NS(=O)(=O)c1ccc(NC(=O)CN2CCN(S(=O)(=O)/C=C/c3ccccc3)CC2)cc1 | inconclusive: 50.1 µM [inhibitor, partial curve, poor fit] | 
Cc1ccc(CNCc2cn[nH]c2-c2ccc(C)cc2)cc1 |  | inactive: 16.5%
Cc1nc2cccnc2n1C1CCN(S(=O)(=O)c2ccc(C(C)C)cc2)CC1 |  | inactive: 6.84% [at 57.1 µM]
CC1(C)CC(=O)C2=C(C1)N(c1ccccc1)C(N)=C(C#N)C2c1ccsc1 (stereo not given) | inconclusive: 79.4 µM [inhibitor, single point] | 
COc1ccccc1N1CCNC(C)C1=O (stereo not given) |  | inactive: -21.5% [at 57.1 µM]
O=C(CSc1nc(-c2ccco2)nc2cc(=O)[nH]n12)Nc1ccccc1F |  | inactive: 17.5% [at 57.1 µM]
COc1ccc(Nc2nc(NCc3ccco3)nc(N/N=C/c3ccccc3F)n2)cc1 | inconclusive: 70.8 µM [inhibitor, partial curve] | 
COc1ccc(-n2nc(C(=O)N3CCN(c4cccc(C(F)(F)F)c4)CC3)c3c4ccccc4n(C)c3c2=O)cc1Cl |  | inactive: 19.8%
N#Cc1c(N2CCCCC2)nc(N)c2c(N)nc(SCC(=O)O)cc12 | inconclusive: 70.8 µM [inhibitor, single point] | 
CN(C)CCCN1C(=O)c2oc3ccccc3c(=O)c2C1c1cccs1 (stereo not given) | inconclusive: 8.91 µM [inhibitor, partial curve, poor fit] | 
COC(=O)c1c(NC(=O)CCS(=O)(=O)c2ccccc2)sc2c1CCN(C)C2 | inconclusive: 79.4 µM [inhibitor, partial curve, poor fit] | 
COC(=O)c1cc(C)nc(N)c1C#N | inconclusive: 70.8 µM [inhibitor, single point] | 
O=C(O)C1CSC(c2ccncc2)N1 (stereo not given) | inconclusive: 50.1 µM [inhibitor, partial curve, poor fit] | 
CC(=O)n1cc(N(C(=O)CCl)c2ccc([N+](=O)[O-])cc2)c2ccccc21 | active: 1.12 µM | 

SMILES | Potency | activity change, negative = inhibition
CCN(Cc1cccc(S(=O)(=O)O)c1)c1ccc(C(=C2C=CC(=[N+](CC)Cc3cccc(S(=O)(=O)O)c3)C=C2)c2ccccc2S(=O)(=O)[O-])cc1 |  | inactive: -3.99%
COc1ccc(C2=NOC(C(=O)NC(C)(C)C)C2)cc1 (stereo not given) | inconclusive: 15.8 µM [inhibitor, full curve, poor fit] | 
O=C(NCc1ccco1)c1ccc(CS(=O)(=O)c2cccc(C(F)(F)F)c2)o1 | inconclusive: 22.4 µM [inhibitor, single point] | 
Cc1cccc(C)c1NC(=O)CNC(=O)c1ccc2ccccc2n1 | inconclusive: 35.5 µM [inhibitor, single point] | 
CCOC(=O)C1=C(C)NC2=C(C(=O)c3ccccc32)C1c1ccc([N+](=O)[O-])o1 (stereo not given) | inconclusive: 39.8 µM [inhibitor, single point] | 
CN(C(=O)c1ccoc1)c1ccccc1I | inconclusive: 22.4 µM [inhibitor, single point] | 
CC1=C(C(=O)Nc2ccc(C)cn2)C(c2cnn(C)c2)C2=C(CCCC2=O)N1 (stereo not given) |  | inactive: 5.17%
O=S(=O)(c1ccc(NC(=S)NCc2ccc(F)cc2)cc1)N1CCOCC1 | inconclusive: 10 µM [inhibitor, partial curve, poor fit] | 
COc1ccc(C(=O)/C=C/c2cc(OC)c(O)c(OC)c2)c(F)c1 | inconclusive: 89.1 µM [inhibitor, single point] | 
COc1cc(/C=C(\C#N)C(=O)c2ccc(O)c(O)c2)cc(I)c1O | inconclusive: 56.2 µM [inhibitor, partial curve, poor fit] and inconclusive: 50.1 µM [inhibitor, partial curve] and inconclusive: 25.1 µM [inhibitor, partial curve] | 
Cc1ccc(C)c(/C(O)=C2/C(=O)C(=O)N(CCN3CCOCC3)C2c2ccc(C)o2)c1 (stereo not given) | inconclusive: 25.1 µM [inhibitor, single point] | 
COc1ccc(NC(=O)c2ccco2)cc1NC(=O)c1cccs1 |  | inactive: 15.5%
Cc1cc(C(=O)CSCCCn2c(=O)[nH]c3ccccc32)c(C)n1C | inconclusive: 17.8 µM [inhibitor, partial curve] | 
CC(=O)c1c(C)oc2ccc(N(C(=O)c3ccncc3)S(=O)(=O)c3ccc(F)cc3C)cc12 | inconclusive: 17.8 µM [inhibitor, full curve] | 
COc1cc(NC(=O)c2cccs2)c(OC)cc1NC(=O)Nc1ccc(F)cc1 | inconclusive: 89.1 µM [inhibitor, single point] | 
COc1cc(Br)cc(/C=N/NC(=O)Cc2ccc(C(F)(F)F)cc2[N+](=O)[O-])c1O |  | inactive: -4.27% [at 57.1 µM]
CCc1nn2c(=O)cc(COc3ccc(NC(=O)c4ccco4)cc3)nc2s1 | inconclusive: 22.4 µM [inhibitor, partial curve] | 
O=S(NCc1ccccc1)C12CC3CC(CC(C3)C1)C2 (stereo not given) |  | inactive: 0.183%
Nc1cc(OC(=O)c2ccco2)nn1S(=O)(=O)c1ccc(F)cc1 | active: 7.08 µM | 
O=C(c1ccco1)N1CCN(c2ncnc3c(-c4ccccc4)nsc23)CC1 | inconclusive: 11.2 µM [inhibitor, partial curve, poor fit] | 
O=C(c1cccc([N+](=O)[O-])c1)N1CCN(CCc2ccncc2)CC1 | inconclusive: 20 µM [inhibitor, partial curve, poor fit] | 
